# Measured values taken from the supplement of paper PMC10037445.
# Whole data set: some 2,900 compounds, median “NF-kB SEAP reporter activity, fold change vs agonist alone” near 0.99, cut for the highest 2% near 2.6. Some of the results follow.
# How the values were obtained:
# RAW-Dual [1] = assay: NF-kB SEAP reporter activity, fold change vs agonist alone; cytotoxicity flag (confluency mask): not cytotoxic; higher = enhanced NF-kB activity
# Procedure, shortened: (§1)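 RAW-Dual macrophages (50,000 cells/well in DMEM, 384-well plates) received 50 nL of library stock by pin tool, then a PRR agonist 1 h later, and were kept at 37 °C, 5% CO2. After 20 hours, supernatant was read for IRF by QuantiLuc luminescence and for NF-κB by QuantiBlue absorbance at 620 nm. Reporter activity is fold change over agonist-alone wells. Cytotoxic wells had IncuCyte confluency below 70% of agonist controls in both mask sets.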
# RAW-Dual [2] = assay: NF-kB SEAP reporter activity, fold change vs agonist alone; higher = enhanced NF-kB activity
# Procedure, shortened: as §1
# RAW-Dual [3] = assay: NF-kB SEAP reporter activity, fold change vs agonist alone; cytotoxicity flag (confluency mask): cytotoxic (confluency <70% of control); higher = enhanced NF-kB activity
# Procedure, shortened: as §1
# [4] = agonist: ODN 1826 (TLR9) 0.5 ug/mL
# [5] = agonist: Pam2CSK4 (TLR2/6) 0.1 ug/mL
# [6] = agonist: Pam3CSK4 (TLR2/1) 0.1 ug/mL
# [7] = library stock concentration (final ~1000-fold dilution): 10 mM, cytotoxicity flag (confluency mask): not cytotoxic, agonist: Imiquimod (TLR7) […]
# [8] = library stock concentration (final ~1000-fold dilution): 10 mM, cytotoxicity flag (confluency mask): not cytotoxic, agonist: MPLA (TLR4) […]
# [9] = library stock concentration (final ~1000-fold dilution): 10 mM water, cytotoxicity flag (confluency mask): not cytotoxic, agonist: Imiquimod (TLR7) […]
# [10] = library stock concentration (final ~1000-fold dilution): 10 mM water, cytotoxicity flag (confluency mask): not cytotoxic, agonist: MPLA (TLR4) […]
smiles,measurement,setting,value
COc1ccc(CC(N)C(=O)NC2C(CO)OC(n3cnc4c(N(C)C)ncnc43)C2O)cc1.Cl.Cl (stereo unspecified) (library stock concentration (final ~1000-fold dilution): 10 mM),NF-kB SEAP reporter activity,RAW-Dual [1]; agonist: LPS (TLR4) 0.1 ug/mL,0.584
same,NF-kB SEAP reporter activity,RAW-Dual [1]; [4],0.469
same,NF-kB SEAP reporter activity,RAW-Dual [1]; [5],0.13
same,NF-kB SEAP reporter activity,RAW-Dual [1]; [6],0.256
COc1cc2nc(N3CCN(C(=O)C4COc5ccccc5O4)CC3)nc(N)c2cc1OC.CS(=O)(=O)O (stereo unspecified),NF-kB SEAP reporter activity,RAW-Dual [2]; [7],1.28
same,NF-kB SEAP reporter activity,RAW-Dual [2]; [8],1.52
COc1cc2nc(N3CCN(C(=O)C4COc5ccccc5O4)CC3)nc(N)c2cc1OC.CS(=O)(=O)O (stereo unspecified) (library stock concentration (final ~1000-fold dilution): 10 mM),NF-kB SEAP reporter activity,RAW-Dual [1]; agonist: LPS (TLR4) 0.1 ug/mL,1.27
same,NF-kB SEAP reporter activity,RAW-Dual [1]; [4],0.201
same,NF-kB SEAP reporter activity,RAW-Dual [1]; [5],1.05
same,NF-kB SEAP reporter activity,RAW-Dual [1]; [6],1.45
COc1ccnc2[nH]cc(C(=O)C(=O)N3CCN(C(=O)c4ccccc4)CC3C)c12 (stereo unspecified) (library stock concentration (final ~1000-fold dilution): 10 mM),NF-kB SEAP reporter activity,RAW-Dual [1]; agonist: LPS (TLR4) 0.1 ug/mL,0.892
same,NF-kB SEAP reporter activity,RAW-Dual [1]; [4],1.05
same,NF-kB SEAP reporter activity,RAW-Dual [1]; [5],1.11
same,NF-kB SEAP reporter activity,RAW-Dual [1]; [6],1.1
COc1ccnc2[nH]cc(C(=O)C(=O)N3CCN(C(=O)c4ccccc4)CC3C)c12 (stereo unspecified),NF-kB SEAP reporter activity,RAW-Dual [2]; [7],0.968
same,NF-kB SEAP reporter activity,RAW-Dual [2]; [8],0.941
Nc1cc(F)ccc1NC(=O)/C=C/c1cnn(C/C=C/c2ccccc2)c1,NF-kB SEAP reporter activity,RAW-Dual [2]; [7],1.14
same,NF-kB SEAP reporter activity,RAW-Dual [2]; [8],1.2
Nc1cc(F)ccc1NC(=O)/C=C/c1cnn(C/C=C/c2ccccc2)c1 (library stock concentration (final ~1000-fold dilution): 10 mM),NF-kB SEAP reporter activity,RAW-Dual [1]; agonist: LPS (TLR4) 0.1 ug/mL,0.995
same,NF-kB SEAP reporter activity,RAW-Dual [1]; [4],1.12
same,NF-kB SEAP reporter activity,RAW-Dual [1]; [5],0.405
same,NF-kB SEAP reporter activity,RAW-Dual [1]; [6],0.419
O=C(Nc1nccs1)C(c1cc(F)ccc1O)N1Cc2ccccc2C1=O (stereo unspecified),NF-kB SEAP reporter activity,RAW-Dual [2]; [7],0.944
same,NF-kB SEAP reporter activity,RAW-Dual [2]; [8],0.982
O=C(Nc1nccs1)C(c1cc(F)ccc1O)N1Cc2ccccc2C1=O (stereo unspecified) (library stock concentration (final ~1000-fold dilution): 10 mM),NF-kB SEAP reporter activity,RAW-Dual [1]; agonist: LPS (TLR4) 0.1 ug/mL,0.902
same,NF-kB SEAP reporter activity,RAW-Dual [1]; [4],0.989
same,NF-kB SEAP reporter activity,RAW-Dual [1]; [5],0.865
same,NF-kB SEAP reporter activity,RAW-Dual [1]; [6],1.02
NC1=NC(c2cccc(-c3cncnc3)c2)(c2ccnc(C(F)F)c2)c2cccc(F)c21 (stereo unspecified),NF-kB SEAP reporter activity,RAW-Dual [2]; [7],0.724
same,NF-kB SEAP reporter activity,RAW-Dual [2]; [8],1.05
NC1=NC(c2cccc(-c3cncnc3)c2)(c2ccnc(C(F)F)c2)c2cccc(F)c21 (stereo unspecified) (library stock concentration (final ~1000-fold dilution): 10 mM),NF-kB SEAP reporter activity,RAW-Dual [1]; agonist: LPS (TLR4) 0.1 ug/mL,1.01
same,NF-kB SEAP reporter activity,RAW-Dual [1]; [4],0.837
same,NF-kB SEAP reporter activity,RAW-Dual [1]; [5],0.902
same,NF-kB SEAP reporter activity,RAW-Dual [1]; [6],1
COc1cc(C(C)=O)ccc1O (library stock concentration (final ~1000-fold dilution): 10 mM),NF-kB SEAP reporter activity,RAW-Dual [1]; agonist: LPS (TLR4) 0.1 ug/mL,1.04
same,NF-kB SEAP reporter activity,RAW-Dual [1]; [4],1.04
same,NF-kB SEAP reporter activity,RAW-Dual [1]; [5],0.925
same,NF-kB SEAP reporter activity,RAW-Dual [1]; [6],1.13
COc1cc(C(C)=O)ccc1O,NF-kB SEAP reporter activity,RAW-Dual [2]; [7],0.932
same,NF-kB SEAP reporter activity,RAW-Dual [2]; [8],0.986
CC/C(=C(/c1ccc(/C=C/C(=O)O)cc1)c1ccc2[nH]ncc2c1)c1ccc(F)cc1Cl (library stock concentration (final ~1000-fold dilution): 10 mM),NF-kB SEAP reporter activity,RAW-Dual [1]; agonist: LPS (TLR4) 0.1 ug/mL,0.434
same,NF-kB SEAP reporter activity,RAW-Dual [1]; [4],0.355
same,NF-kB SEAP reporter activity,RAW-Dual [1]; [5],0.404
same,NF-kB SEAP reporter activity,RAW-Dual [1]; [6],0.233
CC/C(=C(/c1ccc(/C=C/C(=O)O)cc1)c1ccc2[nH]ncc2c1)c1ccc(F)cc1Cl,NF-kB SEAP reporter activity,RAW-Dual [2]; [7],0.465
same,NF-kB SEAP reporter activity,RAW-Dual [2]; [8],0.809
CCOC(=O)C(N)Cc1ccc(-c2cc(OC(c3ccc(Cl)cc3-n3ccc(C)n3)C(F)(F)F)nc(N)n2)cc1.O=C(O)CNC(=O)c1ccccc1 (stereo unspecified),NF-kB SEAP reporter activity,RAW-Dual [2]; [7],0.878
same,NF-kB SEAP reporter activity,RAW-Dual [2]; [8],1
CCOC(=O)C(N)Cc1ccc(-c2cc(OC(c3ccc(Cl)cc3-n3ccc(C)n3)C(F)(F)F)nc(N)n2)cc1.O=C(O)CNC(=O)c1ccccc1 (stereo unspecified) (library stock concentration (final ~1000-fold dilution): 10 mM),NF-kB SEAP reporter activity,RAW-Dual [1]; agonist: LPS (TLR4) 0.1 ug/mL,0.456
same,NF-kB SEAP reporter activity,RAW-Dual [1]; [4],0.938
same,NF-kB SEAP reporter activity,RAW-Dual [1]; [5],0.584
same,NF-kB SEAP reporter activity,RAW-Dual [1]; [6],0.914
C[N+](C)(C)CCOC(=O)CCC(=O)OCC[N+](C)(C)C,NF-kB SEAP reporter activity,RAW-Dual [2]; [9],0.911
same,NF-kB SEAP reporter activity,RAW-Dual [2]; [10],1.01
C[N+](C)(C)CCOC(=O)CCC(=O)OCC[N+](C)(C)C (library stock concentration (final ~1000-fold dilution): 10 mM water),NF-kB SEAP reporter activity,RAW-Dual [1]; agonist: LPS (TLR4) 0.1 ug/mL,1
same,NF-kB SEAP reporter activity,RAW-Dual [1]; [4],1.06
same,NF-kB SEAP reporter activity,RAW-Dual [1]; [5],1.21
same,NF-kB SEAP reporter activity,RAW-Dual [1]; [6],1.05
CC(Cc1ccc(O)c(O)c1)(NN)C(=O)O (stereo unspecified),NF-kB SEAP reporter activity,RAW-Dual [2]; [7],0.949
same,NF-kB SEAP reporter activity,RAW-Dual [2]; [8],0.988
CC(Cc1ccc(O)c(O)c1)(NN)C(=O)O (stereo unspecified) (library stock concentration (final ~1000-fold dilution): 10 mM),NF-kB SEAP reporter activity,RAW-Dual [1]; agonist: LPS (TLR4) 0.1 ug/mL,1.1
same,NF-kB SEAP reporter activity,RAW-Dual [1]; [4],0.98
same,NF-kB SEAP reporter activity,RAW-Dual [1]; [5],0.954
same,NF-kB SEAP reporter activity,RAW-Dual [1]; [6],1.14
CCCCCCCCCCCCCCCCOP(=O)([O-])OCC[N+](C)(C)C (library stock concentration (final ~1000-fold dilution): 10 mM water),NF-kB SEAP reporter activity,RAW-Dual [1]; agonist: LPS (TLR4) 0.1 ug/mL,1.18
same,NF-kB SEAP reporter activity,RAW-Dual [1]; [4],1.05
same,NF-kB SEAP reporter activity,RAW-Dual [1]; [5],0.97
same,NF-kB SEAP reporter activity,RAW-Dual [1]; [6],1.13
CCCCCCCCCCCCCCCCOP(=O)([O-])OCC[N+](C)(C)C,NF-kB SEAP reporter activity,RAW-Dual [2]; [9],1.02
same,NF-kB SEAP reporter activity,RAW-Dual [2]; [10],1.27
Cc1cc(O)c(-c2ccc(C(C)CN)cc2)c2c1[nH]c(=O)c1sccc12.Cl (stereo unspecified),NF-kB SEAP reporter activity,"RAW-Dual [2]; library stock concentration (final ~1000-fold dilution): 10 mM, cytotoxicity flag (confluency mask): cytotoxic (confluency <70% of control), agonist: Imiquimod (TLR7) […]",0.193
same,NF-kB SEAP reporter activity,"RAW-Dual [2]; library stock concentration (final ~1000-fold dilution): 10 mM, cytotoxicity flag (confluency mask): cytotoxic (confluency <70% of control), agonist: MPLA (TLR4) […]",0.246
Cc1cc(O)c(-c2ccc(C(C)CN)cc2)c2c1[nH]c(=O)c1sccc12.Cl (stereo unspecified) (library stock concentration (final ~1000-fold dilution): 10 mM),NF-kB SEAP reporter activity,RAW-Dual [3]; agonist: LPS (TLR4) 0.1 ug/mL,0.417
same,NF-kB SEAP reporter activity,RAW-Dual [3]; [4],0.188
same,NF-kB SEAP reporter activity,RAW-Dual [3]; [5],0.0673
same,NF-kB SEAP reporter activity,RAW-Dual [3]; [6],0.13
